Data taken from publication PMC10372406.
Where two headings read alike, the source gives them in different places. These are yes or no findings as the source states them, for the method shown. In cells and extracts the contact can be indirect. Some binding calls cover weakened binding; strength is not graded here. For some assays here: Tags and fused reporters may be left off the sequences shown.

Amino acid sequences for entries named in this document (tags omitted). A change or cut given only in a name is not applied to a line headed by its entry.
UniProt Q9WVC6: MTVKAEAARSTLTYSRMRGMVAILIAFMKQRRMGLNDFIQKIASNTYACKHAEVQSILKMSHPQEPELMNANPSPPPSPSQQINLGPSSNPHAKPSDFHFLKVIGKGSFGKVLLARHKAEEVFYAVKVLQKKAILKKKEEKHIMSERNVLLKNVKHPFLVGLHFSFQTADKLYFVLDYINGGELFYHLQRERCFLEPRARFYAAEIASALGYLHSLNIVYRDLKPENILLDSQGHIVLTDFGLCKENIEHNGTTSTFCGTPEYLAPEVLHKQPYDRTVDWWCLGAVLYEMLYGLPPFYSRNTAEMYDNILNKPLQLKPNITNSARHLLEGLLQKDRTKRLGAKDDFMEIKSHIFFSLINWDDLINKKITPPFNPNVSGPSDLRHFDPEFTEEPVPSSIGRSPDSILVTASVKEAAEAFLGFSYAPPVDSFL
UniProt Q15173: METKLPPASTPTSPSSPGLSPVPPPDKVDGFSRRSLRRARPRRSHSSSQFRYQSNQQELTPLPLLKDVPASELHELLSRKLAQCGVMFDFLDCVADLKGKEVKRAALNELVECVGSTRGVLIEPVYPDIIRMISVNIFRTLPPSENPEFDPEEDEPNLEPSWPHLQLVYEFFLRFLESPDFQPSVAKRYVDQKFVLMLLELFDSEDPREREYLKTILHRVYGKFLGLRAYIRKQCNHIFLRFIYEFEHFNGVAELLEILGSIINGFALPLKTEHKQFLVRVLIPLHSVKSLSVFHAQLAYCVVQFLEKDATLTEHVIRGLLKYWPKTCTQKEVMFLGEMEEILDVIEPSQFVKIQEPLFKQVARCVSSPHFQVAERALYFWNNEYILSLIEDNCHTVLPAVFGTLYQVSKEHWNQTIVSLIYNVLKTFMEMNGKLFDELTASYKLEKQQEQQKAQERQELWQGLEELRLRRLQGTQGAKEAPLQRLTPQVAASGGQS
UniProt P31749: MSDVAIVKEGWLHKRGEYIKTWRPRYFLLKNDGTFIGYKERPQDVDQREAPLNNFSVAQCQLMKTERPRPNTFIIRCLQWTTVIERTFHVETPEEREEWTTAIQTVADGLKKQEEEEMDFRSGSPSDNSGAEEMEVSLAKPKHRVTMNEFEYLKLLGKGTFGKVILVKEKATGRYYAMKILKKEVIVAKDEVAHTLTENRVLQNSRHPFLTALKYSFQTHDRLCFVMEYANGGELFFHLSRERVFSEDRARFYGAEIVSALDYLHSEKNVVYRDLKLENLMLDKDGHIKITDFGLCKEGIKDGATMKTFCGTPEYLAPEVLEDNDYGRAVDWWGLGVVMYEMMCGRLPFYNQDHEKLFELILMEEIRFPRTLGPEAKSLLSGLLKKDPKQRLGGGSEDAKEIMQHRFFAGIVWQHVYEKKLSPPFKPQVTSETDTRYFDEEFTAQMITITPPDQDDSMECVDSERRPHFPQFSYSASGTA
UniProt P23443: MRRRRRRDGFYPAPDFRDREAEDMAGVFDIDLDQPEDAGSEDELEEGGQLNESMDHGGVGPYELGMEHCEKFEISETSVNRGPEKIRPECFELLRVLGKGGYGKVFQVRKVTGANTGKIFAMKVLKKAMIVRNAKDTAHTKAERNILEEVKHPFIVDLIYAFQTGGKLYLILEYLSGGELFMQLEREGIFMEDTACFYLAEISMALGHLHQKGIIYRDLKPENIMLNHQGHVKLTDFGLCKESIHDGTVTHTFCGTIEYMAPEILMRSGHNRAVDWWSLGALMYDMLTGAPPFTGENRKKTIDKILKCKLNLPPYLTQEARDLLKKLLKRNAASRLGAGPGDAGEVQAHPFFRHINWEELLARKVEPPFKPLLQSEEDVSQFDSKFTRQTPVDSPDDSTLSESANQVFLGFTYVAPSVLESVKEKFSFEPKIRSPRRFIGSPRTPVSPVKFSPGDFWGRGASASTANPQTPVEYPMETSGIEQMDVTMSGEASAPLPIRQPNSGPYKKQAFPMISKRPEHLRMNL

T1: Strep-PP5 WT (active) (UniProt P53041)
T1 sequence: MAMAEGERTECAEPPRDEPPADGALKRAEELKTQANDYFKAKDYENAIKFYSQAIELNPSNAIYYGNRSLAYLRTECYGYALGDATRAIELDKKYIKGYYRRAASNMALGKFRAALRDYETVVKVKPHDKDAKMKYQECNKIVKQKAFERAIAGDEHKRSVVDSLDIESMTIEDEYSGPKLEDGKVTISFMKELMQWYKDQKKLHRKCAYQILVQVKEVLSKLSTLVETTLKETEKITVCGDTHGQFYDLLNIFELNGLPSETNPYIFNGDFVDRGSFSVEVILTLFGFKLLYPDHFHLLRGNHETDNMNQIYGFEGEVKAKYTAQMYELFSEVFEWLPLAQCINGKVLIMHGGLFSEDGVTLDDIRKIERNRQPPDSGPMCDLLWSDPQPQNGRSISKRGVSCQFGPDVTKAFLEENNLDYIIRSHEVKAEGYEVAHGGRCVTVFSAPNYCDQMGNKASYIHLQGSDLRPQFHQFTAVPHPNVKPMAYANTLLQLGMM

T2: Strep-PP5 inactive (PP5-IA, N303A/H304A) (UniProt P53041)
T2 sequence: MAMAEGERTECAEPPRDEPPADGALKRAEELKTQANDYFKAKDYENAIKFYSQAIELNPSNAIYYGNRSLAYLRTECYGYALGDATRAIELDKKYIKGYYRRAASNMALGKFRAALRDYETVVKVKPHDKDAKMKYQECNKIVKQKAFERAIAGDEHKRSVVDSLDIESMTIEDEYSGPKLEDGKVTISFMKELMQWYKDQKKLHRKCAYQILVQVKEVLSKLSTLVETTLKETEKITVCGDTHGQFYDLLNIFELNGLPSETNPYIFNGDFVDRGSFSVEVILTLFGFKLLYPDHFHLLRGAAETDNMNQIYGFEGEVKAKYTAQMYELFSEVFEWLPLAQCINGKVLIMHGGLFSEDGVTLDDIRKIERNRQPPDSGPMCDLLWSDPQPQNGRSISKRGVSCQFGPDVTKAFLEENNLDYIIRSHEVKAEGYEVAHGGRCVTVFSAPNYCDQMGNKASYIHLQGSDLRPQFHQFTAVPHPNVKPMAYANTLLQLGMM

T3: PP2A regulatory subunit B55δ, FLAG-tagged (B55-FL) (UniProt Q66LE6)
T3 sequence: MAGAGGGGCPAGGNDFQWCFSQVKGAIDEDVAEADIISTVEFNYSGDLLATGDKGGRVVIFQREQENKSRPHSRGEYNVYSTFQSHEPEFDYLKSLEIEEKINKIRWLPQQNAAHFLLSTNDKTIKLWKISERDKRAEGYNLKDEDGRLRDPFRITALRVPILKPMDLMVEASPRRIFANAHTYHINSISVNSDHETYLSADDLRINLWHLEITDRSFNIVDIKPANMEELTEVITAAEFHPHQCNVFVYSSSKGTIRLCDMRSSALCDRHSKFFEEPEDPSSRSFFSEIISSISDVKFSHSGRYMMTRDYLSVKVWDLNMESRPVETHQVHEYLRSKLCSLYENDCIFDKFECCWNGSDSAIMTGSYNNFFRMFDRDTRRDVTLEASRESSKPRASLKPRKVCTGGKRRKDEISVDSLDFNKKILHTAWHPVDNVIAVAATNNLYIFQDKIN

T4: PP2A regulatory subunit B55γ, FLAG-tagged (B55-FL) (UniProt Q9Y2T4)
T4 sequence: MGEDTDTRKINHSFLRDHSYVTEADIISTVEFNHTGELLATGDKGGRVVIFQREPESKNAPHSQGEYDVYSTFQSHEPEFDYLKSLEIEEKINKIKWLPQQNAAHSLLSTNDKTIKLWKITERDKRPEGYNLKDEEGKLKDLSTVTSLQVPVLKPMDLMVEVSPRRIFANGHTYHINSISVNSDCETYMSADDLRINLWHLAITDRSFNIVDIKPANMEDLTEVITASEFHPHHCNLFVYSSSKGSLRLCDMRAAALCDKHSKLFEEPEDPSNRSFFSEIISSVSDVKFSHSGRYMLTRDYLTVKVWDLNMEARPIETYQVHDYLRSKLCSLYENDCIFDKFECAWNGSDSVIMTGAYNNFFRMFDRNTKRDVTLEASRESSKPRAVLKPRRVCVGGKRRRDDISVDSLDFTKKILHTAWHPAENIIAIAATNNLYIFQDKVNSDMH


Key:
Strep-PP5 WT (active) [1] = target: T1, Strep-PP5 WT (active); test: co-IP; Strep-PP5 captured on Strep-Tactin XT Superflow from lysates of transfected 293T cells, eluted with buffer BXT (50 mM biotin); western blot
[2] = target: serum- and glucocorticoid-induced kinase 1, HA-tagged (SGK1-HA) (UniProt Q9WVC6); test: co-IP; HA-tagged bait precipitated with HA magnetic beads from lysates of transfected 293T cells (TENT 1%: 50 mM Tris, 150 mM NaCl, 5 mM EDTA, 1% Triton X-100, pH 7.4); western blot
[3] = target: T2, Strep-PP5 inactive (PP5-IA, N303A/H304A); test: co-IP; Strep-PP5 captured on Strep-Tactin XT Superflow from lysates of transfected 293T cells, eluted with buffer BXT (50 mM biotin); western blot
[4] = target: T3, PP2A regulatory subunit B55δ, FLAG-tagged (B55-FL); test: co-IP; FLAG-tagged bait precipitated with FLAG magnetic beads from lysates of transfected 293T cells (TENT 1%); western blot
[5] = target: PP2A regulatory subunit B56β, FLAG-tagged (B56-FL) (UniProt Q15173); test: as above
[6] = target: T4, PP2A regulatory subunit B55γ, FLAG-tagged (B55-FL); test: as above
[7] = target: serum- and glucocorticoid-induced kinase 1, HA-tagged (SGK1-HA) (UniProt Q9WVC6); test: co-IP; HA-tagged bait precipitated with HA magnetic beads from lysates of transfected 293T cells (TENT 1%: 50 mM Tris, 150 mM NaCl, 5 mM EDTA, 1% Triton X-100, pH 7.4); western blot; remark: listed apart in the source
Strep-PP5 WT (active) [8] = target: T1, Strep-PP5 WT (active); test: co-IP; Strep-PP5 captured on Strep-Tactin XT Superflow from lysates of transfected 293T cells, eluted with buffer BXT (50 mM biotin); western blot; remark: listed apart in the source
[9] = target: T2, Strep-PP5 inactive (PP5-IA, N303A/H304A); test: as above; remark: listed apart in the source

Molecule | binding (Strep-PP5 WT (active) [1]) | binding [7] | further results
AKT1 (from UniProt P31749 1-480) (enzyme) | no binding |  | 
PP2A regulatory subunit B56β, FLAG-tagged (B56-FL) (from UniProt Q15173 1-497) |  |  | binding [2]: binds
p70S6K (from UniProt P23443 1-525) (enzyme) | no binding |  | 
CDC37 (protein, UniProt Q16543 1-378) MVDYSVWDHIEVSDDEDETHPNIDTASLFRWRHQARVERMEQFQKEKEELDRGCRECKRKVAECQRKLKELEVAEGGKAELERLQAEAQQLRKEERSWEQKLEEMRKKEKSMPWNVDTLSKDGFSKSMVNTKPEKTEEDSEEVREQKHKTFVEKYEKQIKHFGMLRRWDDSQKYLSDNVHLVCEETANYLVIWCIDLEVEEKCALMEQVAHQTIVMQFILELAKSLKVDPRACFRQFFTKIKTADRQYMEGFNDELEAFKERVRGRAKLRIEKAMKEYEEEERKKRLGPGGLDPVEVYESLPEELQKCFDVKDVQMLQDAISKMDPTDAKYHMQRCIDSGLWVPNSKASEAKEGEEAGPGDPLLEAVPKTGDEKDVSV |  | binds | binding (Strep-PP5 WT (active) [8]): binds; binding [9]: binds
PP2A regulatory subunit B55γ, FLAG-tagged (B55-FL) (protein, UniProt Q9Y2T4 1-447) MGEDTDTRKINHSFLRDHSYVTEADIISTVEFNHTGELLATGDKGGRVVIFQREPESKNAPHSQGEYDVYSTFQSHEPEFDYLKSLEIEEKINKIKWLPQQNAAHSLLSTNDKTIKLWKITERDKRPEGYNLKDEEGKLKDLSTVTSLQVPVLKPMDLMVEVSPRRIFANGHTYHINSISVNSDCETYMSADDLRINLWHLAITDRSFNIVDIKPANMEDLTEVITASEFHPHHCNLFVYSSSKGSLRLCDMRAAALCDKHSKLFEEPEDPSNRSFFSEIISSVSDVKFSHSGRYMLTRDYLTVKVWDLNMEARPIETYQVHDYLRSKLCSLYENDCIFDKFECAWNGSDSVIMTGAYNNFFRMFDRNTKRDVTLEASRESSKPRAVLKPRRVCVGGKRRRDDISVDSLDFTKKILHTAWHPAENIIAIAATNNLYIFQDKVNSDMH |  | binds | 
PP2A regulatory subunit B55δ, FLAG-tagged (B55-FL) (protein, UniProt Q66LE6 1-453) MAGAGGGGCPAGGNDFQWCFSQVKGAIDEDVAEADIISTVEFNYSGDLLATGDKGGRVVIFQREQENKSRPHSRGEYNVYSTFQSHEPEFDYLKSLEIEEKINKIRWLPQQNAAHFLLSTNDKTIKLWKISERDKRAEGYNLKDEDGRLRDPFRITALRVPILKPMDLMVEASPRRIFANAHTYHINSISVNSDHETYLSADDLRINLWHLEITDRSFNIVDIKPANMEELTEVITAAEFHPHQCNVFVYSSSKGTIRLCDMRSSALCDRHSKFFEEPEDPSSRSFFSEIISSISDVKFSHSGRYMMTRDYLSVKVWDLNMESRPVETHQVHEYLRSKLCSLYENDCIFDKFECCWNGSDSAIMTGSYNNFFRMFDRDTRRDVTLEASRESSKPRASLKPRKVCTGGKRRKDEISVDSLDFNKKILHTAWHPVDNVIAVAATNNLYIFQDKIN |  | binds | 
FL-PP5 (FLAG-tagged PP5, WT) (enzyme, UniProt P53041 1-499) MAMAEGERTECAEPPRDEPPADGALKRAEELKTQANDYFKAKDYENAIKFYSQAIELNPSNAIYYGNRSLAYLRTECYGYALGDATRAIELDKKYIKGYYRRAASNMALGKFRAALRDYETVVKVKPHDKDAKMKYQECNKIVKQKAFERAIAGDEHKRSVVDSLDIESMTIEDEYSGPKLEDGKVTISFMKELMQWYKDQKKLHRKCAYQILVQVKEVLSKLSTLVETTLKETEKITVCGDTHGQFYDLLNIFELNGLPSETNPYIFNGDFVDRGSFSVEVILTLFGFKLLYPDHFHLLRGNHETDNMNQIYGFEGEVKAKYTAQMYELFSEVFEWLPLAQCINGKVLIMHGGLFSEDGVTLDDIRKIERNRQPPDSGPMCDLLWSDPQPQNGRSISKRGVSCQFGPDVTKAFLEENNLDYIIRSHEVKAEGYEVAHGGRCVTVFSAPNYCDQMGNKASYIHLQGSDLRPQFHQFTAVPHPNVKPMAYANTLLQLGMM |  | binds | 

Further lines, with some results ahead:

binding (Strep-PP5 WT (active) [1]) | binding [7] | Molecule | further results
binds |  | serum- and glucocorticoid-induced kinase 1, HA-tagged (SGK1-HA) (from UniProt Q9WVC6 1-431) (enzyme) | binding [3]: binds; binding [4]: binds; binding [5]: binds; binding [6]: binds
binds |  | Δ60SGK1-HA (from UniProt Q9WVC6 61-431) (enzyme) | binding [3]: binds
 | binds | FL-PP5-IA (FLAG-tagged catalytically inactive PP5, N303A/H304A) (enzyme, UniProt P53041 1-499) MAMAEGERTECAEPPRDEPPADGALKRAEELKTQANDYFKAKDYENAIKFYSQAIELNPSNAIYYGNRSLAYLRTECYGYALGDATRAIELDKKYIKGYYRRAASNMALGKFRAALRDYETVVKVKPHDKDAKMKYQECNKIVKQKAFERAIAGDEHKRSVVDSLDIESMTIEDEYSGPKLEDGKVTISFMKELMQWYKDQKKLHRKCAYQILVQVKEVLSKLSTLVETTLKETEKITVCGDTHGQFYDLLNIFELNGLPSETNPYIFNGDFVDRGSFSVEVILTLFGFKLLYPDHFHLLRGAAETDNMNQIYGFEGEVKAKYTAQMYELFSEVFEWLPLAQCINGKVLIMHGGLFSEDGVTLDDIRKIERNRQPPDSGPMCDLLWSDPQPQNGRSISKRGVSCQFGPDVTKAFLEENNLDYIIRSHEVKAEGYEVAHGGRCVTVFSAPNYCDQMGNKASYIHLQGSDLRPQFHQFTAVPHPNVKPMAYANTLLQLGMM | 
